# PubChem BioAssay AID686979 (National Center for Advancing Translational Sciences (NCATS), 2013)
# The whole screen tested about 420,000 compounds, of which about 50,000 (12%) were called active. Inconclusive results, whose numbers are uncertain, are shown with a selection of clear calls. Calls come from the whole dose curve; as a rule, active = well fitted inhibition curve with a large enough effect; inconclusive = small, poorly fitted or top-dose-only effect; inactive = flat fitted curve, though single readings scatter. Potencies of inconclusive entries are left out as doubtful fits.
# Experiment: qHTS for Inhibitors of human tyrosyl-DNA phosphodiesterase 1 (TDP1): qHTS in cells in presence of CPT; note: nearly all actives have a fitted effect of over 55% in size
# Conditions: chicken DT40 Tdp1-/-;hTDP1 cells + 20 nM CPT, ATP luminescence, 48 h; activity change, negative = growth inhibition: at 46.2 µM (top of the series) unless noted
# Outline: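 Cell growth measured by CellTiter-Glo luminescence after a minimum 48 h, 37 C compound exposure with 20 nM CPT in Tdp1-knockout DT40 cells stably expressing hTDP1, seeded 400/well; qHTS titration format.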
# % is set by controls: 0 for no effect and ±100 for the full control effect; potency is the fitted concentration of half-maximal effect; tags give direction and shape of the fitted curve.
SMILES,Potency,"activity change, negative = growth inhibition"
COc1ccccc1-c1ccc2c(c1)C(C)(Cc1cccc(C#N)c1)C(=O)N2 (configuration not stated),active: 20.6 µM,
CC(C)NC(=O)C1C(c2ccccc2)=Nc2ccccc2N1C(=O)c1ccc(C(F)(F)F)cc1 (configuration not stated),"inconclusive [inhibitor, single point]",
CCCCOc1ccc(C(=O)NC(=S)Nc2ccc(CN3CCOCC3)cc2)cc1,"inconclusive [inhibitor, single point]",
O=C(CSc1n[nH]c(-c2ccccc2Cl)n1)N1CCN(c2ccc(F)cc2)CC1,"inconclusive [inhibitor, single point]",
CCOC(=O)c1c(C)nc2sc3c(=O)n(-c4ccc(OC)cc4)cnc3c2c1-c1ccc(OC)cc1,"inconclusive [inhibitor, single point]",
Cc1nc(N2CCN(Cc3ccccc3)CC2)nc2c1CCC2,,inactive: -17.9%
Cc1ccc(NC(=O)CN(C)C(=O)c2cc(S(=O)(=O)N(C)C)ccc2N2CCCC2)cc1,"inconclusive [inhibitor, single point]",
O=C(NCc1ccccc1Cl)c1cnc2ccccc2n1,"inconclusive [inhibitor, single point]",
CC(C)(C)c1cc[n+](C2=C([O-])c3ccccc3C(=O)/C2=N\S(=O)(=O)c2ccccc2)cc1,"inconclusive [inhibitor, partial curve]",
COc1cccc(C2CC(=O)Nc3cc(C)c(C)cc32)c1 (configuration not stated),"inconclusive [inhibitor, single point]",
COc1ccc(-c2csc(NC(=O)CCCc3nc4ccccc4c(=O)[nH]3)n2)cc1OC,"inconclusive [inhibitor, single point]",
CCCc1ccc(OCc2ccc(C(=O)N3CCN(c4ccccn4)CC3)o2)c(OC)c1,"inconclusive [inhibitor, single point]",
N#CCCn1c(=O)cnc2cnc(OCc3ccccc3)nc21,,inactive: -3.66%
O=C(Nc1nc2cc3c(cc2s1)OCO3)c1ccc(N2C(=O)CCC2=O)cc1,,inactive: -2.37%
COC(=O)c1c(C)oc(C)c1S(=O)(=O)Nc1ccc(C(C)C)cc1,"inconclusive [inhibitor, single point]",
Cc1ccc(N(CC(=O)N2CCN(c3ccc(F)cc3)CC2)S(=O)(=O)c2c(C)nn(C)c2C)cc1,"inconclusive [inhibitor, single point]",
CC(C)(C)c1ccc(OCC(=O)N/N=C/c2ccsc2)cc1,,inactive: -14%
Cc1cc(C)n(C(C)CNS(=O)(=O)c2ccc(C)c(C)c2)n1 (configuration not stated),,inactive: -12.6%
O=C(Nc1ccc(SC(F)F)cc1)c1ccc2c(=O)n3c(nc2c1)CCC3,"inconclusive [inhibitor, partial curve]",
CCN(C(=O)c1c(OC)cccc1OC)c1nnc(-c2cccnc2)s1,"inconclusive [inhibitor, partial curve]",
COc1ccccc1-c1nnc(C2CCN(S(=O)(=O)c3ccccc3)CC2)o1,"inconclusive [inhibitor, single point]",
Cc1ccc(NC2CCCN(C(=O)CCn3nccc3C)C2)cc1C (configuration not stated),"inconclusive [inhibitor, partial curve]",
Cc1ccc(Cn2cnc3ccccc32)cc1,active: 14.6 µM,

SMILES,Potency,"activity change, negative = growth inhibition"
Cn1cc(S(=O)(=O)N2CCCC2)cc1C(=O)Nc1ccc(C(F)(F)F)cc1,active: 29.1 µM,
CCc1cccc(CC)c1-n1c(SCn2nnc3ccccc3c2=O)nnc1-c1cccnc1,"inconclusive [inhibitor, single point]",
C[C@H]1COC(=O)[C@H](CC(=O)OC(C)(C)C)C/C=C\C[C@@H](CC(=O)N[C@H](CO)Cc2ccccc2)C(=O)N1,"inconclusive [inhibitor, single point]",
Nc1nc2ccc([N+](=O)[O-])c(N)c2s1,"inconclusive [inhibitor, single point]",
N#Cc1ccccc1/C=N/Nc1nc(-c2ccccc2)c2cc(Cl)ccc2n1,"inconclusive [inhibitor, single point]",
CC(=O)Nc1ccc(S(=O)(=O)N(CC(=O)NC2CC2)Cc2ccccc2)cc1,,inactive: -26.6%
CCCN(CCC)C(C(=O)Nc1cccc(OC)c1)c1ccccc1 (configuration not stated),"inconclusive [inhibitor, single point]",
CC(C)C[C@H](NC(=O)N1CCn2c1nc1ccccc12)C(=O)N1CCCCC1,"inconclusive [inhibitor, single point]",
COc1cccc2cc(-c3nnc(-c4ccc(Cl)cc4)o3)c(=O)oc12,"inconclusive [inhibitor, full curve, poor fit]",
O=C(Nc1ccc(N2CCN(C(=O)c3cccs3)CC2)cc1)c1cccnc1,"inconclusive [inhibitor, single point]",
CCc1nn(CC(=O)N2CCN(c3cccc(C(F)(F)F)c3)CC2)c(=O)c2cc3occc3n12,,inactive: -19.3%
COc1ccc(-c2nc(C(=O)O)cs2)cc1OC,,inactive: 3.25%
Cc1ccc(C(=O)O)cc1NC(=S)NC(=O)c1ccc(COc2ccccc2)cc1,"inconclusive [inhibitor, single point]",
O=C(c1ccc(C(F)(F)F)n(Cc2ccc(Cl)cc2)c1=O)N1CCOCC1,"inconclusive [inhibitor, partial curve]",
O=C(N[C@H]1C/C=C\C[C@@H](CC(=O)N(CCO)Cc2ccccc2)C(=O)N2CCC[C@@H]2COC1=O)OCC1c2ccccc2-c2ccccc21,active: 8.2 µM,
COc1cccc(N2CCN(C(=O)Cn3cnc4onc(-c5ccc(F)cc5)c4c3=O)CC2)c1,active: 23.1 µM,
N#Cc1ccc(NC(=O)c2nc(-c3ccccc3)n(-c3ccccc3)n2)cc1,"inconclusive [inhibitor, single point]",
CCN(CC)S(=O)(=O)c1cccc(C(=O)Nc2ccc(Cl)cn2)c1,"inconclusive [inhibitor, partial curve, poor fit]",
Cc1cc(C(=O)N/N=C/c2ccc(-c3ccc([N+](=O)[O-])cc3C)o2)n[nH]1,"inconclusive [inhibitor, single point]",
C(=C\c1nccc2ccccc12)/c1ccc(N2CCOCC2)cc1,"inconclusive [inhibitor, single point]",
O=C(CSc1ncn[nH]1)N1N=C2/C(=C\c3ccco3)CCCC2C1c1ccco1 (configuration not stated),,inactive: 10.6%
COc1cccc(NC(=O)CN(C)C(=O)c2ccc(NC3CC3)c([N+](=O)[O-])c2)c1,,inactive: -16%
COc1ccc(NC(=S)N2c3ccccc3CC2C)cc1OC (configuration not stated),"inconclusive [inhibitor, single point]",

SMILES,Potency,"activity change, negative = growth inhibition"
COc1cc(C2C(C#N)=C(N)Oc3c2oc(CO)cc3=O)ccc1OC(C)C (configuration not stated),,inactive: 0.888%
CCCc1nc(N)c(C#N)c(N)c1C#N,"inconclusive [inhibitor, single point]",
N#Cc1ccccc1Oc1ccccc1C=O,"inconclusive [inhibitor, single point]",
CC(C)Nc1nc(Nc2ccc(C(N)=O)cc2)c2sccc2n1,active: 25.9 µM,
Cc1ccc(S(=O)(=O)c2cc3c(=O)n4ccccc4nc3n(Cc3ccco3)c2=N)cc1C,,inconclusive: -30.3% [inhibitor]
COc1ccc(S(=O)(=O)N2CCN(C(=O)COc3ccc4c(C)cc(=O)oc4c3)CC2)cc1,"inconclusive [inhibitor, single point]",
C/C(=N\NC(=O)c1cc2c(s1)CCC(C)C2)c1ccncc1 (configuration not stated),"inconclusive [inhibitor, single point]",
COc1ccc(N2CCN(C(=O)c3ccc(-c4ccccc4)cc3)CC2)cc1,,inactive: 1.07%
CC(C)(C)c1ccc(S(=O)(=O)N2CCCCC2)cc1,"inconclusive [inhibitor, single point]",
Cn1c(CC(=O)Nc2ccccc2C(F)(F)F)c(Sc2ccccc2)c2ccccc21,,inactive: -19.5%
O=C(O)c1cc(S(=O)(=O)N(Cc2ccccc2)c2cccc(C(F)(F)F)c2)ccc1Cl,,inactive: -1.49%
CCOc1ccc(S(=O)(=O)n2cnc3cc(C)c(C)cc32)cc1,"inconclusive [inhibitor, partial curve, poor fit]",
O=C(Nn1cc(C(=O)Nc2ccccc2F)c2ccccc2c1=O)c1cnccn1,"inconclusive [inhibitor, single point]",
COc1cc(C(=O)NC2CCN(Cc3ccccc3)CC2)cc(Cl)c1OC(C)C,"inconclusive [inhibitor, single point]",
Cc1ccc(N(C)C2=NC(=O)CS2)cc1Cl,,inactive: 6.62%
CC(NC(=S)NC1CCC(C(C)(C)C)CC1)c1ccccc1 (configuration not stated),"inconclusive [inhibitor, single point]",
Cc1ccc(Cc2c(-c3ccc(Br)cc3)nc3ccc(Cl)cn23)cc1,"inconclusive [inhibitor, single point]",
O=C1NC[C@H](Cc2ccccc2)N(CCc2cc(C(F)(F)F)cc(C(F)(F)F)c2)C1=O,"inconclusive [inhibitor, single point]",
CCCn1c(NC(=O)c2ccc(Cl)c(S(=O)(=O)N3CCCC3)c2)nc2ccccc21,active: 23.1 µM,
CCOC(=O)c1c(N2C(=O)Nc3cc(Cl)c(Cl)cc3N2O)sc2c1CCCCC2,,inactive: -18.7%
CCC1Nc2ncnc(N3CCc4ccccc4C3)c2N(Cc2ccc(Br)cc2)C1=O (configuration not stated),"inconclusive [inhibitor, single point]",
